# Whole data set: some 33,000 sequences, median “E-score (-0.5 to 0.5)” near -0.012, cut for the highest 2% near 0.27. The list shows a part of the results.
# Target: T1, Vhr1 (UniProt P40522)
# T1 sequence: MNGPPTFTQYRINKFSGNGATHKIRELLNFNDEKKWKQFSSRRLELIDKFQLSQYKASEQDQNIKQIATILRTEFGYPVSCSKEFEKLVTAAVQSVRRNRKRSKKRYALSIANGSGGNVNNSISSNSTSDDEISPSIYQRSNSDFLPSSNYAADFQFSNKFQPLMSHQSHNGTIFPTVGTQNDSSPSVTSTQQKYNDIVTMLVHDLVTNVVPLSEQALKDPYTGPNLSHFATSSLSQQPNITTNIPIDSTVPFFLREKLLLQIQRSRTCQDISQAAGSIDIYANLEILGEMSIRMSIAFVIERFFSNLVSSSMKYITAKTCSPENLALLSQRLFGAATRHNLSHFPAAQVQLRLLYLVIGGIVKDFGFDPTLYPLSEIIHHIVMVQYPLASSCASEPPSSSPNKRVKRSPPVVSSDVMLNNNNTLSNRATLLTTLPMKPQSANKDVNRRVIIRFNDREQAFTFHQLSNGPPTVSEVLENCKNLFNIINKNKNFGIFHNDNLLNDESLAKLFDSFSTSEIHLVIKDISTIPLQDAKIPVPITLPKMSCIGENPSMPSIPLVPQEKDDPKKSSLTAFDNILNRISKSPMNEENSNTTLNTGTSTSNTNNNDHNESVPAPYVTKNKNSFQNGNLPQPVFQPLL
# Test: PBM E-score (8-mer binding enrichment) (E-score (-0.5 to 0.5)); higher = stronger / more preferred TF binding; most listed sequences are background and not binding sites
# Conditions: protein concentration: 200 nM; construct: GST-full length
# In short: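 GST-tagged yeast TFs (full-length or DNA-binding domain) were made by PURExpress in vitro transcription/translation and applied at about 100-200 nM to universal all-10-mer Agilent arrays. The arrays were made double-stranded by primer extension, on fresh or once-stripped slides. Bound protein was detected with fluorescent anti-GST, and scans were normalised with masliner. Each ungapped eight-base word, pooled with its reverse complement, received an E-score (modified Wilcoxon-Mann-Whitney statistic) from the Universal PBM Analysis Suite.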
row,Sequence,PBM E-score
1,CCAAGTCA,0.133
2,ATAGTGGG,0.063
3,ACCACGCG,0.0984
4,GTCAACCA,-0.0131
5,ATGACGAC,0.229
6,ACTAAACA,0.0858
7,CGTCATTA,-0.122
8,AACCAACA,0.063
9,ATCATCCC,0.149
10,CGTTTATC,0.0605
11,CGCGTGGA,-0.127
12,CGTGGCAG,0.057
13,GTTAGGGA,-0.229
14,ACTCACGG,0.352
15,ACCGTGGA,0.0577
16,CAGTAAGA,-0.0112
17,CCGACGAA,0.0572
18,GCCTAGGC,-0.247
19,ACGTCTAG,-0.0685
20,CCTGGCTC,0.197
21,AGTGACCG,-0.117
22,AGGTGAGC,0.208
23,ACCCCCTG,-0.151
24,GCCTGACC,-0.113
25,AGTGGTGC,-0.0378

row,Sequence,PBM E-score
1,AAGACTTC,-0.228
2,ACTCCTGG,0.0389
3,CCGATACG,-0.153
4,CCGTCAGG,-0.155
5,GTAATGGA,0.0976
6,GACCATGC,0.0186
7,CAACGTCA,-0.0719
8,TCCAAAAA,-0.245
9,GAGACCGA,-0.0354
10,AGCCTGCC,-0.195
11,GGCGCCGA,-0.00941
12,AACGAACA,0.032
13,ATACAAAC,0.234
14,GTACTTAA,-0.123
15,CACAGGTC,-0.0511
16,ATAGGCCG,-0.229
17,CACGTTCG,-0.085
18,CTAGGAGA,-0.132
19,AACCGCGT,0.0481
20,TGACTCCA,0.48
21,TTAATAAA,0.202
22,GAATTGGA,-0.0708
23,CGTTGCCC,-0.166
24,CCCCTAAG,-0.0465
25,CACGTAGC,-0.11

row,Sequence,PBM E-score
1,CATGAACC,0.23
2,AACTAGAA,-0.115
3,GTCAGGAC,0.104
4,CCTAACCC,-0.163
5,ACGATGCT,0.0556
6,GATGTCCC,-0.044
7,ATTTTCGA,-0.111
8,GCCTTAGC,-0.197
9,GTGGTCTA,-0.0306
10,AATAGAAC,-0.155
11,CAGTTGAC,0.156
12,CCGCGCCA,0.00882
13,GCGTTGAA,-0.0799
14,AGCGCCCG,-0.0232
15,ACACCGTC,-0.112
16,CTAGTAGA,0.0512
17,CACGGCCC,-0.0712
18,CTTGGGAA,-0.129
19,ACCCAACG,0.134
20,ATCCATAC,0.0581
21,GGGAGTAC,0.135
22,ATGAAATA,-0.147
23,GGGTAGAA,-0.131
24,TGAACTCA,0.031
25,GCCCTGAA,-0.095

row,Sequence,PBM E-score
1,AATCGCTA,-0.057
2,CCTAAAGC,-0.278
3,AAACTCCC,-0.26
4,AAGATTAG,0.0572
5,CTTCAACC,-0.15
6,GCAGGCCC,-0.199
7,ATATGGAC,0.117
8,CCCATTCC,-0.0358
9,ATCTCGCG,0.0902
10,GAGCACAC,0.0763
11,CTTCCAAG,-0.128
12,GTTGCATA,0.0983
13,GATCCCCA,-0.107
14,CGAATCTA,-0.172
15,TGGCAGAA,-0.025
16,CCCTGTTC,-0.217
17,CAACTGGG,-0.182
18,AACATAAG,0.138
19,CACTCAGG,0.117
20,AACCCACC,0.313
21,GACACCGA,0.0755
22,AGCAGCTA,-0.118
23,CCAATCGA,0.00657
24,GATACTTA,-0.187
25,AGTCTCAG,0.041

row,Sequence,PBM E-score
1,ATCTACTA,0.142
2,AAGCCATG,-0.0516
3,ATGTTAAC,0.16
4,ACTGTTTA,-0.0395
5,CGTAAATA,-0.129
6,ATTTTCCG,-0.16
7,ATTCGTTA,0.114
8,AATCTTGA,-0.178
9,CGGACTGC,0.00522
10,AATGCATG,0.0921
11,ATTGAGCG,0.00733
12,GTCGATCA,-0.029
13,GGTTTCAA,-0.0163
14,GCCCGGTA,-0.0844
15,ACTTTCTC,-0.0948
16,CGCCCGCA,0.209
17,CACGCTAA,-0.144
18,AGTGCCTG,-0.0085
19,AGCATGCC,-0.0938
20,GGAAGTCA,0.282
21,GGGGTCAA,-0.00112
22,AAACGAGA,-0.0248
23,AATGCTTA,-0.143
24,GCTGCCCC,-0.196
25,AGGCATGG,0.0696

row,Sequence,PBM E-score
1,ACCCATAA,0.231
2,CAGTTAAC,-0.0669
3,GCCCCCTA,-0.347
4,AGATCGAG,-0.178
5,CCTGCTTA,-0.00839
6,CTGCTGTA,-0.104
7,GAGATGTA,0.0797
8,GAAGAAGA,-0.115
9,AAACTGCT,-0.183
10,CGGGGTGC,0.0436
11,AAACTGTC,-0.196
12,ATCCCCTC,0.0736
13,CGTACGAA,-0.00421
14,CTTGTTAA,-0.179
15,AACTGCCT,0.0605
16,AAACTGAC,-0.0759
17,GATTTTCC,-0.186
18,TCGGTCCA,-0.0643
19,GTACTGTA,-0.151
20,ATGGCGAC,-0.0878
21,ACTAATAG,0.144
22,ACGAACTA,0.135
23,CTCTTCAA,-0.238
24,CTACGGTA,0.0486
25,AAGCTCCG,-0.173

row,Sequence,PBM E-score
1,AGCGAAGA,-0.163
2,AAACACAG,0.0633
3,CCCGTTAC,-0.11
4,TCGTCAAA,0.0166
5,ATGTTCTC,-0.0906
6,CTACTTTC,-0.213
7,AGCCGGGA,0.0226
8,ATGTCAGC,0.072
9,ACGGTTCT,-0.0909
10,CGCGGCGA,0.212
11,AACGGACG,0.0561
12,AGAGTGAT,0.0551
13,CTTTAACA,-0.345
14,GTTAATTA,0.0345
15,ATTCAAAA,-0.0713
16,TGATGCCA,-0.00527
17,CGGTTGTA,-0.0495
18,CGGCGAAC,-0.0382
19,CCGCATTA,0.0424
20,ATACCCTC,0.00336
21,ATCGAGTA,0.0544
22,AGTTATGA,0.0389

# From the supplement of paper PMC3334620
